# Assay results published in PubChem BioAssay AID488969 (Vanderbilt High Throughput Screening Facility, 2010).
# In all, about 110,000 compounds were measured (“z-score”: median about -0.1, highest 2% from about 2 on). The list shows a part of the results.
# Target: Metabotropic glutamate receptor 8 (Rattus norvegicus) (UniProt P70579)
# Test: rat mGluR8 modulators via GIRK flux, primary screen, cell-based, thallium flux, HTS (AID 488969)
# Details: HEK293 rat mGluR8, GIRK (G protein-gated inwardly rectifying potassium channel) thallium flux, FluoZin2; at 10 µM; stronger effect = higher value; submaximal glutamate (EC20) added with thallium
# Sequence of UniProt P70579 (P70579 whole entry, looked up): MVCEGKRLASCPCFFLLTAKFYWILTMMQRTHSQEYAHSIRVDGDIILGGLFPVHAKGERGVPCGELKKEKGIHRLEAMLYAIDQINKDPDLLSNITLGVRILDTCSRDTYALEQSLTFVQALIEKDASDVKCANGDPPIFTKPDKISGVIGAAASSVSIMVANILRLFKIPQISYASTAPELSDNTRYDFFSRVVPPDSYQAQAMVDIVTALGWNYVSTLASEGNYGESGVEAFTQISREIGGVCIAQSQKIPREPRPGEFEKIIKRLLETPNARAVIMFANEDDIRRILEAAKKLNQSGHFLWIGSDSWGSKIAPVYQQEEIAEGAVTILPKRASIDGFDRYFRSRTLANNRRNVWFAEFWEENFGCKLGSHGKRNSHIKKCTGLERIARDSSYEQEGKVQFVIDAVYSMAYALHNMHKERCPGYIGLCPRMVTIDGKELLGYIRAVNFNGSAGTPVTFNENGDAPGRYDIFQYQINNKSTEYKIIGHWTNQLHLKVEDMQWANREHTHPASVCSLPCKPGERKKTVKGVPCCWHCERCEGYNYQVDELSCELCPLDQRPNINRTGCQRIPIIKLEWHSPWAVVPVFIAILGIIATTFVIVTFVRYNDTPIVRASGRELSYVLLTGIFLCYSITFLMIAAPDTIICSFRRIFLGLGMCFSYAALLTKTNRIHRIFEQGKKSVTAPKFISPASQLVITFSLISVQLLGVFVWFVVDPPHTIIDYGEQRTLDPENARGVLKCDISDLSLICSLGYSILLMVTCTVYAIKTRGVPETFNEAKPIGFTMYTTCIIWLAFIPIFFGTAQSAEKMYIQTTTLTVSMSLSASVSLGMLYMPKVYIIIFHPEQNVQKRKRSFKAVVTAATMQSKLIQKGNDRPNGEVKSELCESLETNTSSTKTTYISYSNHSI
row,Structure (SMILES),z-score
1,COc1ccc(CC(=O)NCc2ccccc2)cc1S(=O)(=O)N1CCOCC1,0.0707
2,CCOC(=O)c1c(NC2=NS(=O)(=O)c3ccccc32)sc2c1CCC(C)C2 (stereo unspecified),0.00913
3,COc1ccc(N=C2S/C(=C\c3ccc(C)s3)C(=O)N2CC(C)C)cc1,-0.0979
4,C=C(C)c1cccc(C(C)(C)NC(=O)N2CCN(c3ccccn3)CC2)c1,0.0433
5,CCCCOC(=O)c1cc(C)nc2ccc(Br)cc12,1.52
6,Cc1cc(/C=N/NC(=O)CC2(C)OCCO2)c(C)n1-c1cc(Cl)cc(Cl)c1,-2.4
7,C[C@@H](C(=O)Nc1ccccc1N1CCOCC1)N1C(=O)C2CC=CCC2C1=O (stereo partly specified),0.142
8,O=C(O)CNS(=O)(=O)c1ccc(F)cc1,0.5
9,COC(=O)c1c(C)[nH]c(C(=O)/C=C/c2cccc(Cl)c2)c1C,-0.238
10,CC1=C(C(=O)OCCOC(C)C)C(c2cc3c(cc2Br)OCO3)C2=C(CCCC2=O)N1 (stereo unspecified),0.16
11,COc1ccc(/C=C2/C(=O)N(Cc3ccccc3)N=C2C)cc1,-0.964
12,CCOC(=O)c1c(C)sc2c1N(C(=O)CN(CC)CC)c1ccccc1S2,0.236
13,C(=C\c1ccccc1)/C=N/Nc1nc(N2CCOCC2)nc(N2CCOCC2)n1,-0.0103
14,Cc1ccc(Oc2c(C=O)c3ccccc3n2C)cc1,-0.989
15,Cc1ccc(N2C(=O)c3ccc(N)cc3C2=O)cc1,-0.0975
16,O=C(CN1CCN(c2ccccn2)CC1)NC(=O)NC1CCCCC1,-0.285
17,O=C(COC(=O)c1c[nH]c(=O)[nH]c1=O)NCc1ccccc1,-0.131
18,CCn1c(=N)n(CC(=O)c2ccco2)c2ccccc21,0.33
19,Cc1ccnc(NC(=O)c2cccc(NC(=O)COc3ccccc3)c2)c1,-0.283
20,COc1ccc(Cn2nnc3c(=O)[nH]c(C4CCN(C(=O)c5ccccc5Cl)CC4)nc32)cc1,-0.185
21,Cc1ccc(C)c(OCC(=O)N2CCN(C(=O)c3ccco3)CC2)c1,-0.0604
22,CNC(=O)CSc1nc(N)c2c3c(sc2n1)CCC3,0.0366
23,COc1ccccc1OC(C)C(=O)O (stereo unspecified),-0.0437
24,CCOC(=O)c1[nH]c2ccccc2c1NC(=O)c1ccc(Br)o1,-0.785

row,Structure (SMILES),z-score
1,CC(C)C(=O)Nc1ccc(NC(=O)c2ccc([N+](=O)[O-])cc2Cl)cc1,1.27
2,COc1cccc(-n2c(C)nc3c(cnn3-c3ccc(C)cc3)c2=O)c1,-0.574
3,CCOC(=O)c1cc(C(=O)OCC)c2ccccn2c1=O,-0.145
4,O=C(c1cnn2c(C(F)F)cc(-c3ccccc3)nc12)N1CCOCC1,-0.341
5,COCCCNc1ncnc2c1cnn2-c1ccc(C)cc1C,-0.0529
6,CC(C(=O)Nc1ccccc1Sc1ccccc1)N(c1ccccc1)S(C)(=O)=O (stereo unspecified),-0.314
7,COc1ccc(CNC(=S)Nc2cccc(C)c2C)cc1,-0.341
8,COc1ccc(N2C(=O)CSC23C(=O)N2CCCc4cccc3c42)cc1 (stereo unspecified),-0.413
9,N#C/C(=C\Nc1ccc2c(c1)OCCO2)c1nc(-c2ccccc2)cs1,0.0237
10,CCc1ccc(CNCCSc2nnnn2C)cc1,0.41
11,COc1ccc(Cc2nnc(SCC(=O)NCc3ccco3)o2)cc1,-0.0075
12,CC1=C(C)CC(C(=O)NNC(=O)c2ccccc2O)C(C(=O)O)C1 (stereo unspecified),-0.196
13,Brc1ccc2[nH]c3c(N4CCc5ccccc5C4)ncnc3c2c1,-0.00372
14,Cc1nc(/N=C(\N)NC(=O)N2c3ccccc3Sc3ccccc32)nc2ccccc12,-0.0514
15,Cc1ccc(NC(=O)CN(C)C(=O)CSc2nncn2C)cc1,-0.0873
16,CSc1nc(C)nc2c1c(=O)n(C)c(=O)n2C,0.179
17,OCCN1CCN(CC#CCn2c3ccccc3c3ccccc32)CC1,-0.418
18,COc1ccc(C/C(C)=N/NC(=S)Nc2ccc(C(C)C)cc2)cc1,0.256
19,O=C(Cn1cnc2c(nnn2Cc2ccc(F)cc2)c1=O)NC1CCCC1,1.14
20,O=c1cc(-c2ccccc2)nc2nc(COc3ccccc3)[nH]n12,-0.82
21,Cc1cc(Cl)ccc1OC(C)C(=O)Nc1ccc([N+](=O)[O-])cn1 (stereo unspecified),2.07
22,CC(=O)CCS(=O)(=O)c1ccc(Oc2ccc(S(=O)(=O)CCC(C)=O)cc2)cc1,1.21
23,O=C(/C=C/c1cccc(Cl)c1)c1nc2ccccc2[nH]1,-0.227
24,CCOc1cccc(NC(=O)C2CC(=O)NC(=Nc3ccccc3)S2)c1 (stereo unspecified),0.244

row,Structure (SMILES),z-score
1,CCCSc1nnc2[nH]c(=O)cc(N)n12,-0.106
2,CCOC(=O)c1[nH]c2ccc(OC)cc2c1NC(=O)/C=C/c1ccc2c(c1)OCO2,-0.205
3,Cc1ccc(C)n1-c1ccc(NC(=O)c2ccccc2)cc1,-0.116
4,CC(=O)NCc1nc2ccccc2n1C(C)C,-0.16
5,O=C(CSCc1cccc(Cl)c1)N/N=C/c1ccc(OCC(=O)N2CCCCC2)cc1,-0.284
6,O=C(CN1C(=O)c2ccccc2S1(=O)=O)N1CCOCC1,0.229
7,COC(=O)c1cc(=O)n(Cc2ccc3c(c2)OCO3)c(=Nc2ccc(F)c(Cl)c2)s1,-0.162
8,O=C1CCCN1c1ccc(S(=O)(=O)N2CCN(c3ccccn3)CC2)cc1,-0.208
9,Cc1ccc(S(=O)(=O)NC(C(=O)Oc2ccc3ccc(=O)oc3c2)c2ccccc2)cc1 (stereo unspecified),-0.316
10,O=C(NCc1ccco1)C(NS(=O)(=O)c1cccc2nsnc12)c1ccccc1 (stereo unspecified),0.634
11,Cc1ccc(S(=O)(=O)N2CCN(c3ccc4nnc(-c5ccccc5)n4n3)CC2)cc1,-0.183
12,Cc1ccc(NC(=S)NCCO)c(C)c1,-0.044
13,Cc1nc2ccccc2nc1CSc1nnc(N)s1,0.0642
14,Cc1cccc(C)c1NC(=O)C(NC=O)c1ccccc1 (stereo unspecified),-0.0702
15,CC1CCCN(C(=O)C(C)Sc2nc(-c3ccccc3)cc(C(F)(F)F)n2)C1 (stereo unspecified),-0.5
16,CN1CCc2c(sc3c2C(=O)NC(c2cccs2)N3)C1 (stereo unspecified),-0.402
17,Cc1ccc(/C=C2/C(=O)N(c3ccccc3)C(=S)N2C)o1,-0.3
18,CCn1nnnc1SCC(=O)c1cccc(OC)c1,0.012
19,Cc1cc(C)nc(SCC(=O)Nc2ccc(S(=O)(=O)Nc3onc(C)c3C)cc2)n1,-0.02
20,COc1ccc(OCc2nn3c(Cn4cnc5ccccc54)nnc3s2)cc1,0.0418
21,COc1c([N+](=O)[O-])c(=O)n(-c2ccccc2)c2ccccc12,0.0283
22,CC(=O)C1C(c2cccc([N+](=O)[O-])c2)C2C(C)=NN=C2CC1(C)O (stereo unspecified),-0.0665
23,Cc1ccc(-c2ccc(/C=C(\C#N)C(=O)Nc3cc(C)nn3-c3ccccc3)o2)cc1,-1.77
